# This is one part of the list.
# Tests used:
# Experiment in all cases: glycan array binding signal (z-score within array); higher = stronger binding
# Details in all cases: glycan notation: IUPAC condensed, linker removed
# [1] = target: Gal(b1-4)GlcNAc(b1-3)Gal(b1-4)GlcNAc(b1-3)[Gal(b1-4)GlcNAc(b1-3)Gal(b1-4)GlcNAc(b1-6)]GalNAc
# Procedure, shortened: (§1)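 The Consortium for Functional Glycomics database supplied 3228 glycan arrays, of which those lacking an available protein sequence were dropped. The binding signal, a within-array Z-score, was averaged across arrays of the same protein sequence and across linkers. Negative scores can be read as non-binding.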
# [2] = target: Gal(b1-4)GlcNAc(b1-3)Gal(b1-4)GlcNAc(b1-6)[Gal(b1-3)]GalNAc
# Procedure, shortened: as §1
# [3] = target: Gal(b1-4)GlcNAc(b1-3)Gal(b1-4)[Fuc(a1-3)]GlcNAc(b1-3)Gal(b1-4)[Fuc(a1-3)]GlcNAc
# Procedure, shortened: as §1
# [4] = target: Gal(b1-4)GlcNAc(b1-3)GalNAc
# Procedure, shortened: as §1
# [5] = target: Gal(b1-4)GlcNAc(b1-3)[Fuc(a1-3)GlcNAc(b1-6)]Gal(b1-4)Glc
# Procedure, shortened: as §1
# [6] = target: Gal(b1-4)GlcNAc(b1-3)[Gal(b1-4)GlcNAc(b1-6)]Gal(b1-4)GlcNAc
# Procedure, shortened: as §1
# [7] = target: Gal(b1-4)GlcNAc(b1-3)[GlcNAc(b1-6)]Gal(b1-4)GlcNAc
# Procedure, shortened: as §1
# [8] = target: Gal(b1-4)GlcNAc(b1-6)Gal(b1-4)GlcNAc
# Procedure, shortened: as §1
# [9] = target: Gal(b1-4)GlcNAc(b1-6)GalNAc
# Procedure, shortened: as §1
# [10] = target: Gal(b1-4)GlcNAc(b1-6)[Gal(b1-3)]GalNAc
# Procedure, shortened: as §1
# [11] = target: Gal(b1-4)GlcNAc(b1-6)[Gal(b1-4)GlcNAc(b1-3)]GalNAc
# Procedure, shortened: as §1
# [12] = target: Gal(b1-4)GlcNAc6P
# Procedure, shortened: as §1
# [13] = target: Gal(b1-6)Gal
# Procedure, shortened: as §1
# [14] = target: Gal3S(b1-3)GalNAc
# Procedure, shortened: as §1
# [15] = target: Gal3S(b1-3)GlcNAc
# Procedure, shortened: as §1
# [16] = target: Gal3S(b1-3)[Fuc(a1-4)]GlcNAc
# Procedure, shortened: as §1
# [17] = target: Gal3S(b1-4)Glc
# Procedure, shortened: as §1
# [18] = target: Gal3S(b1-4)Glc6S
# Procedure, shortened: as §1
# [19] = target: Gal3S(b1-4)GlcNAc
# Procedure, shortened: as §1
# [20] = target: Gal3S(b1-4)[Fuc(a1-3)]Glc6S
# Procedure, shortened: as §1
# [21] = target: Gal3S(b1-4)[Fuc(a1-3)]GlcNAc
# Procedure, shortened: as §1
# [22] = target: Gal3S(b1-4)[Fuc(a1-3)]GlcNAc6S
# Procedure, shortened: as §1
# [23] = target: Gal3S4S(b1-4)GlcNAc
# Procedure, shortened: as §1
# [24] = target: Gal3S6S(b1-4)GlcNAc
# Procedure, shortened: as §1
# [25] = target: Gal3S6S(b1-4)GlcNAc6S
# Procedure, shortened: as §1
# [26] = target: Gal4S(b1-4)GlcNAc
# Procedure, shortened: as §1
# [27] = target: Gal4S6S(b1-4)GlcNAc
# Procedure, shortened: as §1
# [28] = target: Gal6P(b1-4)GlcNAc
# Procedure, shortened: as §1
# [29] = target: Gal6S(b1-3)GlcNAc
# Procedure, shortened: as §1
# [30] = target: Gal6S(b1-3)GlcNAc6S
# Procedure, shortened: as §1
# [31] = target: Gal6S(b1-4)Glc
# Procedure, shortened: as §1
# [32] = target: Gal6S(b1-4)Glc6S
# Procedure, shortened: as §1
# [33] = target: Gal6S(b1-4)GlcNAc
# Procedure, shortened: as §1
# [34] = target: Gal6S(b1-4)GlcNAc6S
# Procedure, shortened: as §1
# [35] = target: GalNAc(a1-3)Gal
# Procedure, shortened: as §1
# [36] = target: GalNAc(a1-3)GalNAc
# Procedure, shortened: as §1
# [37] = target: GalNAc(a1-3)GalNAc(b1-3)Gal(a1-4)Gal(b1-4)Glc
# Procedure, shortened: as §1
# [38] = target: GalNAc(a1-3)GalNAc(b1-3)Gal(a1-4)Gal(b1-4)GlcNAc
# Procedure, shortened: as §1
# [39] = target: GalNAc(b1-3)Gal
# Procedure, shortened: as §1
# [40] = target: GalNAc(b1-3)Gal(a1-4)Gal(b1-4)GlcNAc
# Procedure, shortened: as §1
# [41] = target: GalNAc(b1-3)Gal(a1-4)Gal(b1-4)GlcNAc(b1-3)Gal(b1-4)Glc
# Procedure, shortened: as §1
# [42] = target: GalNAc(b1-3)Gal(a1-6)Gal(b1-4)Glc
# Procedure, shortened: as §1
# [43] = target: GalNAc(b1-3)GalNAc
# Procedure, shortened: as §1
# [44] = target: GalNAc(b1-3)GlcNAc
# Procedure, shortened: as §1
# [45] = target: GalNAc(b1-4)Gal(b1-4)Glc
# Procedure, shortened: as §1
# [46] = target: GalNAc(b1-4)GlcNAc
# Procedure, shortened: as §1
# [47] = target: GalNAc(b1-4)GlcNAc(b1-2)Man
# Procedure, shortened: as §1
# [48] = target: GalNAc(b1-4)GlcNAc(b1-2)Man(a1-3)[GalNAc(b1-4)GlcNAc(b1-2)Man(a1-6)]Man(b1-4)GlcNAc(b1-4)GlcNAc
# Procedure, shortened: as §1
# [49] = target: GalNAc(b1-4)GlcNAc(b1-3)GalNAc(b1-4)GlcNAc
# Procedure, shortened: as §1
# [50] = target: GalNAc(b1-4)GlcNAc6S
# Procedure, shortened: as §1
# [51] = target: GalNAc(b1-6)GalNAc
# Procedure, shortened: as §1
# [52] = target: GalNAc3S(b1-4)GlcNAc
# Procedure, shortened: as §1
# [53] = target: GalNAc3S(b1-4)GlcNAc3S
# Procedure, shortened: as §1
# [54] = target: GalNAc3S(b1-4)[Fuc(a1-3)]GlcNAc
# Procedure, shortened: as §1
# [55] = target: GalNAc4S6S(b1-4)GlcNAc
# Procedure, shortened: as §1
# [56] = target: GalNAc6S(b1-4)GlcNAc
# Procedure, shortened: as §1
# [57] = target: Glc(a1-4)Glc
# Procedure, shortened: as §1
# [58] = target: Glc(a1-4)Glc(a1-4)Glc(a1-4)Glc
# Procedure, shortened: as §1
# [59] = target: Glc(a1-6)Glc(a1-6)Glc
# Procedure, shortened: as §1
# [60] = target: Glc(a1-6)Glc(a1-6)Glc(a1-6)Glc
# Procedure, shortened: as §1
# [61] = target: Glc(b1-4)Glc
# Procedure, shortened: as §1
# [62] = target: Glc(b1-6)Glc
# Procedure, shortened: as §1
# [63] = target: GlcA(b1-3)Gal
# Procedure, shortened: as §1
# [64] = target: GlcA(b1-3)GlcNAc
# Procedure, shortened: as §1
# [65] = target: GlcA(b1-6)Gal
# Procedure, shortened: as §1
# [66] = target: GlcA3S(b1-3)Gal(b1-4)GlcNAc(b1-2)Man
# Procedure, shortened: as §1
# [67] = target: GlcA3S(b1-3)Gal(b1-4)GlcNAc(b1-3)Gal(b1-4)Glc
# Procedure, shortened: as §1
# [68] = target: GlcNAc(a1-3)Gal(b1-4)GlcNAc
# Procedure, shortened: as §1
# [69] = target: GlcNAc(a1-4)Gal(b1-3)GlcNAc
# Procedure, shortened: as §1
# [70] = target: GlcNAc(a1-4)Gal(b1-4)GalNAc
# Procedure, shortened: as §1
# [71] = target: GlcNAc(a1-4)Gal(b1-4)GlcNAc
# Procedure, shortened: as §1
# [72] = target: GlcNAc(a1-4)Gal(b1-4)GlcNAc(b1-3)Gal(b1-4)Glc
# Procedure, shortened: as §1
# [73] = target: GlcNAc(a1-4)Gal(b1-4)GlcNAc(b1-3)Gal(b1-4)GlcNAc
# Procedure, shortened: as §1
# [74] = target: GlcNAc(a1-4)Gal(b1-4)GlcNAc(b1-3)Gal(b1-4)GlcNAc(b1-3)Gal(b1-4)GlcNAc
# Procedure, shortened: as §1
# [75] = target: GlcNAc(a1-4)Gal(b1-4)GlcNAc(b1-3)Gal(b1-4)[Fuc(a1-3)]GlcNAc(b1-3)Gal(b1-4)[Fuc(a1-3)]GlcNAc
# Procedure, shortened: as §1
binder,measurement,setting,value
"Arath Fbox (Arabidopsis thaliana), NP_178341.1 (protein) EFTWGRKRRVKSESSPFDSFPEDCISYIISFTNPRDACVAATVSKTFESTVKSDIIWEKFLPADYESLIPPSRVFSSKKELYFSLCNDPVLFDDDKKSVWLEKASGKRCLMLSAMNLSIIWGDNPQYWQWIPIPESRFEKVAKLRDVCWFEIRGRTNTRVLSPRTRYSAYIVFKGVDKCYGFQNVAIEAAVGVVGQEPSRRLICFSEAIRRGRRNVVKPKQREDGWMEIELGEFFNDGGIMDNDEIEMSALETKQLNRKCGLIIQGIEIRPAKILAAAAASFLEQKLISEEDLNSAVDHHHHHH",glycan array binding signal (z-score),[1],0.03
same,glycan array binding signal (z-score),[2],1.43
same,glycan array binding signal (z-score),[3],0.11
same,glycan array binding signal (z-score),[4],0.835
same,glycan array binding signal (z-score),[5],0.144
same,glycan array binding signal (z-score),[6],-0.617
same,glycan array binding signal (z-score),[7],-0.685
same,glycan array binding signal (z-score),[8],-0.234
same,glycan array binding signal (z-score),[9],0.205
same,glycan array binding signal (z-score),[10],0.811
same,glycan array binding signal (z-score),[11],0.527
same,glycan array binding signal (z-score),[12],-0.459
same,glycan array binding signal (z-score),[13],-0.2
same,glycan array binding signal (z-score),[14],0.065
same,glycan array binding signal (z-score),[15],-0.427
same,glycan array binding signal (z-score),[16],-0.228
same,glycan array binding signal (z-score),[17],1
same,glycan array binding signal (z-score),[18],0.422
same,glycan array binding signal (z-score),[19],0.801
same,glycan array binding signal (z-score),[20],-0.156
same,glycan array binding signal (z-score),[21],-0.48
same,glycan array binding signal (z-score),[22],2.7
same,glycan array binding signal (z-score),[23],-0.115
same,glycan array binding signal (z-score),[24],0.568
same,glycan array binding signal (z-score),[25],0.933
same,glycan array binding signal (z-score),[26],-0.599
same,glycan array binding signal (z-score),[27],-0.197
same,glycan array binding signal (z-score),[28],-0.718
same,glycan array binding signal (z-score),[29],1.69
same,glycan array binding signal (z-score),[30],-0.526
same,glycan array binding signal (z-score),[31],1.6
same,glycan array binding signal (z-score),[32],0.908
same,glycan array binding signal (z-score),[33],-0.16
same,glycan array binding signal (z-score),[34],-0.365
same,glycan array binding signal (z-score),[35],-0.136
same,glycan array binding signal (z-score),[36],0.128
same,glycan array binding signal (z-score),[37],-0.638
same,glycan array binding signal (z-score),[38],-0.355
same,glycan array binding signal (z-score),[39],0.986
same,glycan array binding signal (z-score),[40],-0.151
same,glycan array binding signal (z-score),[41],-0.087
same,glycan array binding signal (z-score),[42],-0.523
same,glycan array binding signal (z-score),[43],-0.429
same,glycan array binding signal (z-score),[44],-0.513
same,glycan array binding signal (z-score),[45],0.06
same,glycan array binding signal (z-score),[46],0.202
same,glycan array binding signal (z-score),[47],0.551
same,glycan array binding signal (z-score),[48],-0.305
same,glycan array binding signal (z-score),[49],-0.196
same,glycan array binding signal (z-score),[50],0.602
same,glycan array binding signal (z-score),[51],-0.638
same,glycan array binding signal (z-score),[52],-0.68
same,glycan array binding signal (z-score),[53],-0.704
same,glycan array binding signal (z-score),[54],-0.042
same,glycan array binding signal (z-score),[55],-0.536
same,glycan array binding signal (z-score),[56],-0.684
same,glycan array binding signal (z-score),[57],-0.735
same,glycan array binding signal (z-score),[58],-0.648
same,glycan array binding signal (z-score),[59],-0.709
same,glycan array binding signal (z-score),[60],-0.455
same,glycan array binding signal (z-score),[61],-0.744
same,glycan array binding signal (z-score),[62],1.04
same,glycan array binding signal (z-score),[63],-0.608
same,glycan array binding signal (z-score),[64],-0.382
same,glycan array binding signal (z-score),[65],-0.582
same,glycan array binding signal (z-score),[66],-0.629
same,glycan array binding signal (z-score),[67],-0.618
same,glycan array binding signal (z-score),[68],-0.704
same,glycan array binding signal (z-score),[69],-0.319
same,glycan array binding signal (z-score),[70],-0.57
same,glycan array binding signal (z-score),[71],-0.728
same,glycan array binding signal (z-score),[72],-0.631
same,glycan array binding signal (z-score),[73],-0.783
same,glycan array binding signal (z-score),[74],-0.654
same,glycan array binding signal (z-score),[75],0.282

# From the supplement of paper PMC8728848
